In the supplement of paper PMC4967469:

Key:
Assay in all cases: Viability of human cancer cell lines after 72 h of drug (GDSC screen)
[1] = compound: C=CC(=O)Nc1cc(NC(=O)c2ccc(C)c(NC(=O)c3ccno3)c2)cc(C(F)(F)F)c1 [QL-XI-92]; conditions: top dose 10.24 µM; top dose inferred
Method: (§1)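 Human cancer cell lines in 384-well plates, medium with 10% serum, drug for 72 h over a 256-fold dose range (nine 2-fold or five 4-fold steps up to the top dose). Adherent lines were fixed and stained with the nucleic acid dye Syto60, suspension lines read with resazurin; signal relative to control wells, capped at 0 and 100%. One two-parameter sigmoid per drug and line, fitted in a mixed model over all curves with the slope shared within a line.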

[2] = compound: CCC1=C[C@@H]2CN(C1)Cc1c([nH]c3ccccc13)[C@@](C(=O)OC)(c1cc3c(cc1OC)N(C)[C@H]1[C@@](O)(C(=O)OC)[C@H](OC(C)=O)[C@]4(CC)C=CCN5CC[C@]31[C@@H]54)C2 [Vinorelbine]; conditions: top dose 0.064 µM; top dose inferred
Method: as §1

[3] = compound: COc1cc2ncnc(Nc3cc(Br)c(O)c(Br)c3)c2cc1OC [WHI-P97]; conditions: top dose 10.24 µM; top dose inferred
Method: as §1

[4] = compound: O=c1cc(CN2CCOCC2)occ1OCCCCCSc1ccnc2cc(C(F)(F)F)ccc12 [EHT 1864]; conditions: top dose 10 µM; top dose inferred
Method: as §1

[5] = compound: N=C(N)NC(=N)NCCc1ccccc1 [Phenformin]; conditions: top dose 4000 µM; top dose inferred
Method: as §1

[6] = compound: COc1cc2nccc(Oc3ccc(NC(=O)C4(C(=O)Nc5ccc(F)cc5)CC4)cc3)c2cc1OC [XL-184]; conditions: top dose 5.12 µM; top dose inferred
Method: as §1

[7] = compound: CNCc1ccc(-c2[nH]c3cc(F)cc4c3c2CCNC4=O)cc1 [AG-014699]; conditions: top dose 5 µM; top dose inferred
Method: as §1

Cell Line: 769-P (kidney, adherent)
- AUC [1]: 0.9
- IC50 [1]: > 10.2 µM
- AUC [2]: 0.724
- IC50 [2]: 0.0185 µM
- AUC [3]: 0.787
- IC50 [3]: 4.88 µM
- AUC [4]: 0.904
- IC50 [4]: > 10 µM
- AUC [5]: 0.741
- IC50 [5]: 1320 µM
- AUC [6]: 0.964
- IC50 [6]: > 5.12 µM

Cell Line: A204 (rhabdomyosarcoma, adherent)
- AUC [1]: 0.888
- IC50 [1]: > 10.2 µM
- AUC [2]: 0.507
- IC50 [2]: 0.00421 µM
- AUC [3]: 0.958
- IC50 [3]: > 10.2 µM
- AUC [4]: 0.945
- IC50 [4]: > 10 µM
- AUC [5]: 0.937
- IC50 [5]: > 4000 µM
- AUC [6]: 0.505
- IC50 [6]: 0.331 µM
- AUC [7]: 0.887
- IC50 [7]: > 5 µM

Cell Line: BEN (non-small cell lung carcinoma, adherent)
- AUC [1]: 0.979
- IC50 [1]: > 10.2 µM
- AUC [2]: 0.765
- IC50 [2]: 0.0267 µM
- AUC [3]: 0.986
- IC50 [3]: > 10.2 µM
- AUC [4]: 0.868
- IC50 [4]: > 10 µM
- AUC [5]: 0.742
- IC50 [5]: 1390 µM
- AUC [6]: 0.966
- IC50 [6]: > 5.12 µM
- AUC [7]: 0.931
- IC50 [7]: > 5 µM

Cell Line: BFTC-909 (kidney, adherent)
- AUC [1]: 0.987
- IC50 [1]: > 10.2 µM
- AUC [2]: 0.695
- IC50 [2]: 0.0139 µM
- AUC [3]: 0.975
- IC50 [3]: > 10.2 µM
- AUC [4]: 0.926
- IC50 [4]: > 10 µM
- AUC [5]: 0.881
- IC50 [5]: > 4000 µM
- AUC [6]: 0.975
- IC50 [6]: > 5.12 µM
- AUC [7]: 0.959
- IC50 [7]: > 5 µM

Cell Line: BICR31 (head and neck, adherent)
- AUC [1]: 0.988
- IC50 [1]: > 10.2 µM
- AUC [2]: 0.554
- IC50 [2]: 0.00563 µM
- AUC [3]: 0.916
- IC50 [3]: > 10.2 µM
- AUC [5]: 0.94
- IC50 [5]: > 4000 µM
- AUC [6]: 0.927
- IC50 [6]: > 5.12 µM

Cell Line: CAKI-1 (kidney, adherent)
- AUC [1]: 0.941
- IC50 [1]: > 10.2 µM
- AUC [2]: 0.953
- IC50 [2]: > 0.064 µM
- AUC [3]: 0.914
- IC50 [3]: > 10.2 µM
- AUC [4]: 0.963
- IC50 [4]: > 10 µM
- AUC [5]: 0.788
- IC50 [5]: 2820 µM
- AUC [7]: 0.905
- IC50 [7]: > 5 µM

Cell Line: CAMA-1 (breast, adherent)
- AUC [1]: 0.955
- IC50 [1]: > 10.2 µM
- AUC [2]: 0.655
- IC50 [2]: 0.012 µM
- AUC [3]: 0.979
- IC50 [3]: > 10.2 µM
- AUC [4]: 0.92
- IC50 [4]: > 10 µM
- AUC [5]: 0.61
- IC50 [5]: 544 µM
- AUC [6]: 0.951
- IC50 [6]: > 5.12 µM
- AUC [7]: 0.977
- IC50 [7]: > 5 µM

Cell Line: COLO-792 (melanoma, adherent)
- AUC [1]: 0.917
- IC50 [1]: > 10.2 µM
- AUC [2]: 0.919
- IC50 [2]: > 0.064 µM
- AUC [3]: 0.981
- IC50 [3]: > 10.2 µM
- AUC [6]: 0.979
- IC50 [6]: > 5.12 µM
- AUC [7]: 0.988
- IC50 [7]: > 5 µM

Cell Line: COR-L105 (lung adenocarcinoma, adherent)
- AUC [1]: 0.876
- IC50 [1]: > 10.2 µM
- AUC [2]: 0.744
- IC50 [2]: 0.0238 µM
- AUC [3]: 0.664
- IC50 [3]: 2.04 µM
- AUC [4]: 0.908
- IC50 [4]: > 10 µM
- AUC [5]: 0.59
- IC50 [5]: 467 µM
- AUC [6]: 0.874
- IC50 [6]: > 5.12 µM
- AUC [7]: 0.923
- IC50 [7]: > 5 µM

Cell Line: COR-L303 (small cell lung carcinoma, suspension)
- AUC [1]: 0.902
- IC50 [1]: > 10.2 µM
- AUC [3]: 0.971
- IC50 [3]: > 10.2 µM
- AUC [5]: 0.954
- IC50 [5]: > 4000 µM
- AUC [6]: 0.985
- IC50 [6]: > 5.12 µM

Cell Line: COR-L311 (small cell lung carcinoma, suspension)
- AUC [1]: 0.799
- IC50 [1]: 5.31 µM
- AUC [3]: 0.946
- IC50 [3]: > 10.2 µM
- AUC [6]: 0.937
- IC50 [6]: > 5.12 µM

Cell Line: Caov-3 (ovary, adherent)
- AUC [1]: 0.989
- IC50 [1]: > 10.2 µM
- AUC [2]: 0.902
- IC50 [2]: > 0.064 µM
- AUC [3]: 0.946
- IC50 [3]: > 10.2 µM
- AUC [5]: 0.622
- IC50 [5]: 518 µM
- AUC [6]: 0.924
- IC50 [6]: > 5.12 µM

Cell Line: GCT (soft tissue, adherent)
- AUC [1]: 0.989
- IC50 [1]: > 10.2 µM
- AUC [2]: 0.873
- IC50 [2]: 0.0544 µM
- AUC [3]: 0.989
- IC50 [3]: > 10.2 µM
- AUC [4]: 0.944
- IC50 [4]: > 10 µM
- AUC [5]: 0.968
- IC50 [5]: > 4000 µM
- AUC [6]: 0.988
- IC50 [6]: > 5.12 µM
- AUC [7]: 0.894
- IC50 [7]: > 5 µM

Cell Line: GP5d (large intestine, adherent)
- AUC [1]: 0.991
- IC50 [1]: > 10.2 µM
- AUC [2]: 0.619
- IC50 [2]: 0.0082 µM
- AUC [3]: 0.917
- IC50 [3]: > 10.2 µM
- AUC [4]: 0.968
- IC50 [4]: > 10 µM
- AUC [5]: 0.709
- IC50 [5]: 901 µM
- AUC [6]: 0.933
- IC50 [6]: > 5.12 µM
- AUC [7]: 0.988
- IC50 [7]: > 5 µM

Cell Line: H2803 (mesothelioma, adherent)
- AUC [1]: 0.985
- IC50 [1]: > 10.2 µM
- AUC [2]: 0.941
- IC50 [2]: > 0.064 µM
- AUC [3]: 0.983
- IC50 [3]: > 10.2 µM
- AUC [4]: 0.963
- IC50 [4]: > 10 µM
- AUC [5]: 0.985
- IC50 [5]: > 4000 µM
- AUC [6]: 0.863
- IC50 [6]: > 5.12 µM
- AUC [7]: 0.97
- IC50 [7]: > 5 µM

Cell Line: H2804 (mesothelioma, adherent)
- AUC [1]: 0.938
- IC50 [1]: > 10.2 µM
- AUC [2]: 0.63
- IC50 [2]: 0.00948 µM
- AUC [3]: 0.976
- IC50 [3]: > 10.2 µM
- AUC [4]: 0.973
- IC50 [4]: > 10 µM
- AUC [5]: 0.976
- IC50 [5]: > 4000 µM
- AUC [6]: 0.934
- IC50 [6]: > 5.12 µM
- AUC [7]: 0.917
- IC50 [7]: > 5 µM

Cell Line: H2810 (mesothelioma, adherent)
- AUC [4]: 0.972
- IC50 [4]: > 10 µM
- AUC [7]: 0.922
- IC50 [7]: > 5 µM

Cell Line: H2818 (mesothelioma, adherent)
- AUC [1]: 0.982
- IC50 [1]: > 10.2 µM
- AUC [2]: 0.958
- IC50 [2]: > 0.064 µM
- AUC [3]: 0.989
- IC50 [3]: > 10.2 µM
- AUC [4]: 0.97
- IC50 [4]: > 10 µM
- AUC [5]: 0.932
- IC50 [5]: > 4000 µM
- AUC [6]: 0.989
- IC50 [6]: > 5.12 µM
- AUC [7]: 0.971
- IC50 [7]: > 5 µM

Cell Line: HO-1-N-1 (head and neck, adherent)
- AUC [1]: 0.984
- IC50 [1]: > 10.2 µM
- AUC [2]: 0.553
- IC50 [2]: 0.0055 µM
- AUC [3]: 0.977
- IC50 [3]: > 10.2 µM
- AUC [4]: 0.972
- IC50 [4]: > 10 µM
- AUC [5]: 0.85
- IC50 [5]: 2660 µM
- AUC [6]: 0.98
- IC50 [6]: > 5.12 µM
- AUC [7]: 0.958
- IC50 [7]: > 5 µM

Cell Line: HPAC (pancreas, adherent)
- AUC [1]: 0.848
- IC50 [1]: > 10.2 µM
- AUC [2]: 0.69
- IC50 [2]: 0.0171 µM
- AUC [3]: 0.971
- IC50 [3]: > 10.2 µM
- AUC [4]: 0.903
- IC50 [4]: > 10 µM
- AUC [5]: 0.839
- IC50 [5]: > 4000 µM
- AUC [6]: 0.698
- IC50 [6]: 1.46 µM
- AUC [7]: 0.927
- IC50 [7]: > 5 µM

By IC50 is meant the dose at which the fit gives 50% viability; where the fit passes the top or lowest dose, that dose stands as a limit. AUC is the area under the same curve over the 256-fold range up to the top dose, as a fraction; it is 1 without any effect and falls as sensitivity rises. Where the top dose is marked as inferred, it comes from the curve model; the source does not state it.
